{"source": "paper PMC6664820", "about": "“Novel natural and synthetic inhibitors of solute carriers SGLT1 and SGLT2” (Pharmacology Research & Perspectives, 2019)", "note": "Out of some 1,900 compounds screened, about 40 (2%) showed an effect of 50% or more. Some of the results follow."}
{"target": "human SGLT1 (hSGLT1) (human, UniProt P13866)", "sequence (P13866 whole entry, looked up)": "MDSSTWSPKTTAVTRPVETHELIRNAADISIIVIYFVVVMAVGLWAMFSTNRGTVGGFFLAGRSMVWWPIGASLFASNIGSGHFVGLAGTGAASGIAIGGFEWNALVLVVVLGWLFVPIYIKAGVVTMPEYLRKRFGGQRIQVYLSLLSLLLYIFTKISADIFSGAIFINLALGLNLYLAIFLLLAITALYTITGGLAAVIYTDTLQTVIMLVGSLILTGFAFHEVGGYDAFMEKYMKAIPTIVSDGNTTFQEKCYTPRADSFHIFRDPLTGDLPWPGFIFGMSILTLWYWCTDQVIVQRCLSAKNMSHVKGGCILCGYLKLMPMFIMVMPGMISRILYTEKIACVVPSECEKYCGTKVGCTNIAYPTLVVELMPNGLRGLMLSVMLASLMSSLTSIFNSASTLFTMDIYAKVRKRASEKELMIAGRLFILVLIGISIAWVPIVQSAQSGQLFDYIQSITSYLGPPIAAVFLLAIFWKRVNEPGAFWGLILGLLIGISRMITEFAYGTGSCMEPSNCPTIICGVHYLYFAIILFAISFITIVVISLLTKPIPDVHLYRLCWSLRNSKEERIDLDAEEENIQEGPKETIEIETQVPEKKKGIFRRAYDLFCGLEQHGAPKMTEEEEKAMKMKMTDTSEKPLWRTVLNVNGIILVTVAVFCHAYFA", "assay": "primary screen, percent of control activity; higher = less effect of the substance", "parameters": "single well", "details": "50 µM", "how_it_was_run": "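Single-point screen at 50 µmol/L in CHO-hSGLT1 cells, with 160 µmol/L 1-NBD-glucose in glucose-free DMEM for 90 min at 37°C. Fluorescence from isopropanol extracts was calibrated, and CHO wild-type uptake was subtracted. Data are percent of uptake without compound.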", "units": {"NORMALIZED SGLT1 ACTIVITY (%)": "%"}}
{"smiles": "O[C@H]1[C@H](O)[C@@H](O)C2OC[C@H]1O2", "NORMALIZED SGLT1 ACTIVITY (%)": 78}
{"smiles": "CC(=O)O[C@H]1C[C@@H](OC(C)=O)C(C)(C)C2C[C@@H](OC(C)=O)[C@@]3(C)C4=CC(=O)O[C@@H](c5ccoc5)[C@]4(C)CCC3[C@]21C", "note": "(stereo partly drawn)", "NORMALIZED SGLT1 ACTIVITY (%)": 99}
{"smiles": "CC(=O)OCC[N+](C)(C)C.[Cl-]", "NORMALIZED SGLT1 ACTIVITY (%)": 115}
{"smiles": "C=C(C)C1CC=C(CO)CC1", "note": "(stereo not drawn)", "NORMALIZED SGLT1 ACTIVITY (%)": 162}
{"smiles": "Cc1ccc(C(C)C)cc2c(C)ccc1-2", "NORMALIZED SGLT1 ACTIVITY (%)": 133}
{"smiles": "Nc1ncn([C@@H]2O[C@H](CO)[C@@H](O)[C@H]2O)c(=O)n1", "NORMALIZED SGLT1 ACTIVITY (%)": 135}
{"smiles": "COc1cccc(OC)c1OCCNCC1COc2ccccc2O1.Cl", "note": "(stereo not drawn)", "NORMALIZED SGLT1 ACTIVITY (%)": 72}
{"smiles": "O=C(Cc1cccs1)N[C@@H]1C(=O)N2C(C(=O)[O-])=C(C[n+]3ccccc3)CS[C@H]12", "NORMALIZED SGLT1 ACTIVITY (%)": 136}
{"smiles": "C[C@@H]1O[C@@H](O[C@H]2[C@@H](Oc3cc(O)c4c(c3)O[C@H](c3ccc(O)cc3)CC4=O)O[C@H](CO)[C@@H](O)[C@@H]2O)[C@H](O)[C@H](O)[C@H]1O", "NORMALIZED SGLT1 ACTIVITY (%)": 112}
{"smiles": "Cl.c1ccc2c(CC3=NCCN3)cccc2c1", "NORMALIZED SGLT1 ACTIVITY (%)": 112}
{"smiles": "C[C@]12CCC(=O)C=C1CC[C@@H]1[C@@H]2[C@@H](O)C[C@@]2(C)[C@H]1CC[C@]2(O)C(=O)COC(=O)CCC(=O)O", "NORMALIZED SGLT1 ACTIVITY (%)": 110}
{"smiles": "COc1ccc(CCN2CCC(Nc3nc4ccccc4n3Cc3ccc(F)cc3)CC2)cc1", "NORMALIZED SGLT1 ACTIVITY (%)": 134}
{"smiles": "COc1cc(O)c2c(=O)c(O)c(-c3ccc(O)c(O)c3)oc2c1", "NORMALIZED SGLT1 ACTIVITY (%)": 243}
{"smiles": "NC(CO)(CO)CO.O=C(c1ccccc1)c1ccc2n1CCC2C(=O)O", "note": "(stereo not drawn)", "NORMALIZED SGLT1 ACTIVITY (%)": 143}
{"smiles": "COc1cc2c(cc1O)[C@@H](Cc1ccc(O)cc1)[N+](C)(C)CC2.[I-]", "NORMALIZED SGLT1 ACTIVITY (%)": 95}
{"smiles": "O=C(Oc1cc(O)cc2c1C[C@@H](OC(=O)c1cc(O)c(O)c(O)c1)[C@@H](c1cc(O)c(O)c(O)c1)O2)c1cc(O)c(O)c(O)c1", "NORMALIZED SGLT1 ACTIVITY (%)": 117}
{"smiles": "CCn1cc(C(=O)O)c(=O)c2ccc(C)nc21", "NORMALIZED SGLT1 ACTIVITY (%)": 238}
{"smiles": "CC(C)NCC(O)c1ccc2ccccc2c1.Cl", "note": "(stereo not drawn)", "NORMALIZED SGLT1 ACTIVITY (%)": 153}
{"smiles": "Cc1c(C)c2c(c(C)c1O)CCC(C)(CCCC(C)CCCC(C)CCCC(C)C)O2", "note": "(stereo not drawn)", "NORMALIZED SGLT1 ACTIVITY (%)": 185}
{"smiles": "O=C(O)CNCP(=O)(O)O", "NORMALIZED SGLT1 ACTIVITY (%)": 101}
{"smiles": "CC(CCC(=O)O)[C@H]1CCC2C3CC[C@@H]4CC(=O)CC[C@]4(C)C3C=C[C@@]21C", "note": "(stereo partly drawn)", "NORMALIZED SGLT1 ACTIVITY (%)": 232}
{"smiles": "CCN(CC)CCNC(=O)c1ccc(N)cc1.Cl", "NORMALIZED SGLT1 ACTIVITY (%)": 107}
{"smiles": "CC(=O)O[C@H]1C[C@@H](OC(C)=O)C(C)(C)C2CC(=O)[C@]3(C)C(CC[C@@]4(C)[C@H](C(=O)O)OC(=O)C5OC543)[C@]21C", "note": "(stereo partly drawn)", "NORMALIZED SGLT1 ACTIVITY (%)": 107}
{"smiles": "Cl.c1ccc2c(c1)CN1CCCC1=N2", "NORMALIZED SGLT1 ACTIVITY (%)": 109}
{"smiles": "Cn1c(=O)c2c(ncn2CCCl)n(C)c1=O", "NORMALIZED SGLT1 ACTIVITY (%)": 183}
{"smiles": "COc1ccc(-c2cc(=O)c3c(O)cc(O[C@@H]4O[C@H](CO[C@H]5O[C@H](C)[C@@H](O)[C@H](O)[C@@H]5O)[C@@H](O)[C@H](O)[C@H]4O)cc3o2)cc1O", "NORMALIZED SGLT1 ACTIVITY (%)": 106}
{"smiles": "Cc1occc(=O)c1/C=C/O", "NORMALIZED SGLT1 ACTIVITY (%)": 132}
{"smiles": "CC(=O)OCC1=C(C(=O)[O-])N2C(=O)[C@@H](NC(=O)Cc3cccs3)[C@H]2SC1.[Na+]", "NORMALIZED SGLT1 ACTIVITY (%)": 140}
{"smiles": "CC(C(=O)O)c1ccc(N2Cc3ccccc3C2=O)cc1", "note": "(stereo not drawn)", "NORMALIZED SGLT1 ACTIVITY (%)": 137}
{"smiles": "COc1ccc2c(c1OC)C(=O)O[C@@H]2[C@H]1c2cc3c(cc2CCN1C)OCO3", "NORMALIZED SGLT1 ACTIVITY (%)": 79}
{"smiles": "CC(C)=CCCC1(C)C=Cc2c(O)c3c(c(CC=C(C)C)c2O1)OC12C(=CC4CC1C(C)(C)OC2(C/C=C(\\C)C(N)=O)C4=O)C3=O", "note": "(stereo not drawn)", "NORMALIZED SGLT1 ACTIVITY (%)": 119}
{"smiles": "CC(C)CC(N(C)C)C1(c2ccc(Cl)cc2)CCC1.Cl", "note": "(stereo not drawn)", "NORMALIZED SGLT1 ACTIVITY (%)": 28}
{"smiles": "CC(C)CCCC(C)[C@H]1CCC2C3CC=C4C[C@@H](O)CC[C@]4(C)C3CC[C@@]21C", "note": "(stereo partly drawn)", "NORMALIZED SGLT1 ACTIVITY (%)": 120}
{"smiles": "CC(C)(C#N)O[C@@H]1O[C@H](CO)[C@@H](O)[C@H](O)[C@H]1O", "NORMALIZED SGLT1 ACTIVITY (%)": 83}
{"smiles": "CC(=O)Oc1ccccc1C(=O)Oc1ccccc1C(=O)O", "NORMALIZED SGLT1 ACTIVITY (%)": 154}
{"smiles": "CN1Cc2c(N)cccc2C(c2ccccc2)C1.O=C(O)/C=C\\C(=O)O", "note": "(stereo not drawn)", "NORMALIZED SGLT1 ACTIVITY (%)": 78}
{"smiles": "CC1(C)OC(=O)NC1=O", "NORMALIZED SGLT1 ACTIVITY (%)": 132}
{"smiles": "C[C@@H]1[C@H]2[C@H](O[C@@H]3O[C@H](CO)[C@@H](O)[C@H](O)[C@H]3O)OC=C(C(=O)O)[C@H]2C[C@@H]1O", "NORMALIZED SGLT1 ACTIVITY (%)": 123}
{"smiles": "CCN(CCO)CCCC(C)Nc1ccnc2cc(Cl)ccc12.O=S(=O)(O)O", "note": "(stereo not drawn)", "NORMALIZED SGLT1 ACTIVITY (%)": 100}
{"smiles": "Cc1ccc(S(=O)(=O)NC(=O)NN2CC3CCCC3C2)cc1", "note": "(stereo not drawn)", "NORMALIZED SGLT1 ACTIVITY (%)": 98}
{"smiles": "COc1ccc(NS(=O)(=O)c2ccc(N)cc2)nn1", "NORMALIZED SGLT1 ACTIVITY (%)": 118}
{"smiles": "O=C(CCBr)N1CCN(C(=O)CCBr)CC1", "NORMALIZED SGLT1 ACTIVITY (%)": 104}
{"smiles": "OC[C@H]1O[C@@H](Oc2ccc(O)cc2)[C@H](O)[C@@H](O)[C@@H]1O", "NORMALIZED SGLT1 ACTIVITY (%)": 94}
{"smiles": "C=C[C@H]1CN2CC[C@H]1C[C@@H]2[C@@H](OC(=O)OCC)c1ccnc2ccc(OC)cc12", "NORMALIZED SGLT1 ACTIVITY (%)": 128}
{"smiles": "CC(CCC(=O)O)[C@H]1CCC2C3C(C[C@H](O)[C@@]21C)[C@@]1(C)CC[C@@H](O)C[C@H]1C[C@H]3O", "note": "(stereo partly drawn)", "NORMALIZED SGLT1 ACTIVITY (%)": 89}
{"smiles": "Cc1cc(=O)c2c(O)cc(O)c(C)c2o1", "NORMALIZED SGLT1 ACTIVITY (%)": 275}
{"smiles": "CC(=O)Oc1cccc(O)c1", "NORMALIZED SGLT1 ACTIVITY (%)": 73}
{"smiles": "C[C@]12CCC(=O)C=C1C=CC1C2CC[C@@]2(C)C1CC[C@@]2(O)CCC(=O)[O-].[K+]", "note": "(stereo partly drawn)", "NORMALIZED SGLT1 ACTIVITY (%)": 146}
{"smiles": "Cl.NCCS", "NORMALIZED SGLT1 ACTIVITY (%)": 142}
{"smiles": "CO[C@@]1(NC(=O)Cc2cccs2)C(=O)N2C(C(=O)[O-])=C(COC(N)=O)CS[C@@H]21.[Na+]", "NORMALIZED SGLT1 ACTIVITY (%)": 114}
{"smiles": "COc1ccc(-c2coc3cc(O)ccc3c2=O)c(O)c1O", "NORMALIZED SGLT1 ACTIVITY (%)": 166}
{"smiles": "CCCCN1CCCCC1C(=O)Nc1c(C)cccc1C.Cl", "note": "(stereo not drawn)", "NORMALIZED SGLT1 ACTIVITY (%)": 42}
{"smiles": "CCOC(=O)[C@H](CCc1ccccc1)N[C@H]1CCc2ccccc2N(CC(=O)O)C1=O.Cl", "NORMALIZED SGLT1 ACTIVITY (%)": 96}
{"smiles": "O=C(O)CCCc1ccccc1", "NORMALIZED SGLT1 ACTIVITY (%)": 451}
{"smiles": "CC(=O)N[C@@H](CCC(=O)O)C(=O)O", "NORMALIZED SGLT1 ACTIVITY (%)": 90}
{"smiles": "CC(=O)Oc1cc2c(c(C)c1OC(C)=O)CC1OC13[C@@]2(C)CC[C@@]1(C)C2C[C@](C)(C(=O)O)CC[C@]2(C)CC[C@]31C", "note": "(stereo partly drawn)", "NORMALIZED SGLT1 ACTIVITY (%)": 204}
{"smiles": "CCCC(=O)Nc1ncnc2c1ncn2[C@@H]1O[C@@H]2COP(=O)(O)O[C@H]2[C@H]1OC(=O)CCC", "NORMALIZED SGLT1 ACTIVITY (%)": 112}
